# PubChem BioAssay (NCATS)
# This list was built around the results that the source calls inconclusive (neither active nor inactive); the mix of calls is not that of the screen. No potency is given beside an inconclusive call; the fits are too rough. Calls of active or inactive are those of the source. Calls follow the shape of the dose curve; as a rule, active = well fitted inhibition curve with a large enough effect; inconclusive = small, poorly fitted or top-dose-only effect, or another doubt; inactive = no such curve, though single readings can be large or run the other way.
# Target: DNA polymerase kappa (Homo sapiens) (UniProt Q9UBT6)
# Assay: qHTS for Inhibitors of Polymerase Kappa: Confirmatory Assay for Cherry-picked Compounds (AID 720501)
# Conditions: purified Pol-kappa, fluorescent strand-displacement substrate
# Outline: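 10 nM human Pol-kappa was preincubated with compound 15 min at room temperature, then 50 nM (final) primer/template substrate with TAMRA-labeled reporter strand and BHQ-2-labeled template added. Fluorescence (Ex 525, Em 598 nm) read at 0 and 10 min.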
# Potency is read from the fitted curve at half-maximal effect; tags tell the direction and shape of the fitted curve.
# Chain of UniProt Q9UBT6 (Q9UBT6 whole entry, looked up): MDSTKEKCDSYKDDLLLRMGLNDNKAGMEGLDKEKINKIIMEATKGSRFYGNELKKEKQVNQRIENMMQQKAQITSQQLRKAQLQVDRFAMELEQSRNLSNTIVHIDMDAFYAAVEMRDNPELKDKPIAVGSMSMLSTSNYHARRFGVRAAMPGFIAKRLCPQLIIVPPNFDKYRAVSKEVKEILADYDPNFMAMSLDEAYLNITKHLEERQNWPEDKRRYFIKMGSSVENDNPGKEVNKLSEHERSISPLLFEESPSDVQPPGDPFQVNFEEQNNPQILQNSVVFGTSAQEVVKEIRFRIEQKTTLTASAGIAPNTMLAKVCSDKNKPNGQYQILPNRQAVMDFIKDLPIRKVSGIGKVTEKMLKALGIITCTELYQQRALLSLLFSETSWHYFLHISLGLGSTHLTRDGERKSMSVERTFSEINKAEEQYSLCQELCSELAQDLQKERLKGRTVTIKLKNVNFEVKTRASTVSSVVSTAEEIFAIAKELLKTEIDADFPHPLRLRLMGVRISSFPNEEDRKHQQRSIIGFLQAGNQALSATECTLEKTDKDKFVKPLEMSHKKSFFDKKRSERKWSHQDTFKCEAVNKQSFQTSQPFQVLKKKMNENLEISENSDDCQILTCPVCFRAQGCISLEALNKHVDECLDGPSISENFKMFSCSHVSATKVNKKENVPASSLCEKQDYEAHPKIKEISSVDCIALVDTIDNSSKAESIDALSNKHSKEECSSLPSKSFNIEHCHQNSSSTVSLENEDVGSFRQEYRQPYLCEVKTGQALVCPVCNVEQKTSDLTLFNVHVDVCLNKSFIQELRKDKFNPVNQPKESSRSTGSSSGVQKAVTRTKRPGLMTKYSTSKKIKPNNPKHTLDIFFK
row,Compound,Potency
1,Oc1c(Br)cc(Br)c(/C=N/n2c(-c3ccccc3)n[nH]c2=S)c1Br,"inconclusive [inhibitor, full curve, poor fit]"
2,Cn1cc(S(=O)(=O)N2CCCC2)cc1C(=O)O,"inconclusive [inhibitor, partial curve]"
3,O=C(/C=C/c1ccco1)NC(=S)NNC(=O)c1ccco1,"inconclusive [inhibitor, partial curve]"
4,COc1ccc(NC(=O)/C(C#N)=C/c2ccc(-c3ccc(Cl)c(C(=O)O)c3)o2)cc1,"inconclusive [inhibitor, partial curve]"
5,Cc1cc(C(=O)C(=O)Nc2nnc(C(C)C)s2)c(C)n1-c1ccccc1,active: 21.2 µM
6,N#Cc1c(NC(=O)/C=C/C(=O)O)sc2c1CCN(Cc1ccccc1)C2,active: 23.8 µM
7,COc1ccc(-c2ccc(CN3C(C)C(=O)N(Cc4cn(CCC5OCCO5)nn4)CCS3(=O)=O)cc2)cc1 (stereo not given),"inconclusive [inhibitor, partial curve]"
8,CC(=O)OCC1=C(C(=O)O)N2C(=O)C(NC(=O)CC(C)c3ccccc3)C2SC1 (stereo not given),"inconclusive [inhibitor, partial curve]"
9,COc1ccc(NC(=O)c2ccco2)cc1NC(=O)c1cc(Cl)ccc1OC,active: 42.3 µM
10,CCOc1ccc(NS(=O)(=O)c2ccc3[nH]cc(C(=O)NCc4ccco4)c(=O)c3c2)cc1,"inconclusive [inhibitor, partial curve, poor fit]"
11,Cc1c(Cl)cnc(NC(=O)COC(=O)[C@@H](NC(=O)c2ccco2)C(C)C)c1Cl,"inconclusive [inhibitor, full curve, poor fit]"
12,O=C(O)c1cccc(N/N=C/C2=C(Cl)c3cc(Cl)ccc3SC2)c1,"inconclusive [inhibitor, single point]"
13,O=c1oc(-c2ccc(O)c(O)c2)cc2cc(O)cc(O)c12,"inconclusive [inhibitor, partial curve]"
14,CC(C)(C)C1CCc2oc3ccc(NS(=O)(=O)c4ccc(C(=O)O)cc4)cc3c2C1 (stereo not given),"inconclusive [inhibitor, partial curve, poor fit]"
15,Cc1cc2oc(C(=O)Nc3sc4c(c3C(=O)NCc3ccco3)CCC4)cc(=O)c2cc1C,"inconclusive [inhibitor, partial curve]"
16,O=C1CS/C(=N\N=C\c2ccco2)N1c1ccccc1,"inconclusive [inhibitor, partial curve]"
17,CCOc1ccc(NC(=O)Cn2nnc(C(=O)NCCc3ccccc3)c2N)cc1,"inconclusive [inhibitor, partial curve, poor fit]"
18,O=C1c2cccc3cccc(c23)C(=O)N1c1ccc2ncccc2c1,"inconclusive [inhibitor, single point]"
19,O=C(/C=C/c1ccco1)N1CCN(S(=O)(=O)c2ccccc2)CC1,"inconclusive [inhibitor, partial curve, poor fit]"
20,COc1ccc2nc(N3C(=O)/C(=C/c4ccccc4)NC3=S)sc2c1,"inconclusive [inhibitor, single point]"

row,Compound,Potency
1,COc1ccc(OCCn2nnc3sc4c(c3c2=O)CCCC4)cc1,"inconclusive [inhibitor, partial curve, poor fit]"
2,CC(=O)c1ccc(NC(=O)CN2C(=O)CCc3cc(S(=O)(=O)N4CCC(C)CC4)ccc32)cc1,"inconclusive [inhibitor, partial curve, poor fit]"
3,COc1ccc(OC)c(/C=C2\S/C(=N/NC(=O)c3ccc4ccccc4c3)NC2=O)c1,"inconclusive [inhibitor, single point]"
4,O=C(O)c1cc(NS(=O)(=O)c2ccc(NCc3ccccc3)c([N+](=O)[O-])c2)cc(C(=O)O)c1,"inconclusive [inhibitor, full curve]"
5,COc1ccc(Br)cc1/C=C/C(=O)NC(=S)Nc1ccc(Cl)c(C(=O)O)c1,"inconclusive [inhibitor, partial curve]"
6,CC(C)Cn1c(N)c(C(=O)COC(=O)C2Cc3ccccc3CN2S(C)(=O)=O)c(=O)n(C)c1=O (stereo not given),"inconclusive [inhibitor, full curve, poor fit]"
7,COc1ccc(NC(=O)Cn2cc(S(=O)(=O)Cc3ccc(F)cc3)c3ccccc32)cc1OC,"inconclusive [inhibitor, partial curve]"
8,CN(c1ccc(Cl)cc1)S(=O)(=O)c1nnc(NC(=O)c2ccco2)s1,"inconclusive [inhibitor, partial curve]"
9,O=C(Nc1nnc(S(=O)(=O)N2CCCc3ccccc32)s1)c1ccccc1Br,"inconclusive [inhibitor, partial curve, poor fit]"
10,Cc1cnc(C(=O)NCC(=O)Nc2ccccc2Br)cn1,"inconclusive [inhibitor, full curve, poor fit]"
11,Cc1oc2c(cc(NS(=O)(=O)c3ccc(C(C)C)cc3)c3ccccc32)c1C(=O)O,"inconclusive [inhibitor, partial curve, poor fit]"
12,Cc1cc(SCC(=O)Nc2ccc3[nH]c(=O)[nH]c3c2)nc2ccccc12,"inconclusive [inhibitor, full curve]"
13,CCOc1ccc(C(=O)Nc2cc(NC(=O)c3ccc(OCC)c(Cl)c3)cc(C(=O)O)c2)cc1Cl,active: 21.2 µM
14,COc1cccc(OCCOc2ccc(/C=C3/SC(=S)NC3=O)cc2)c1,"inconclusive [inhibitor, partial curve]"
15,C#Cc1ccc([C@H]2C=C(C(=O)O)O[C@@H](OCc3ccc(CO)cc3)C2)cc1,active: 42.3 µM
16,O=C(O)c1cnn(-c2ccccc2)c1-c1ccncc1,active: 18.9 µM
17,O=C(c1ccc2c(c1)N(Cc1cccc(F)c1)C(=O)c1ccccc1S2)N1CCCC1,"inconclusive [inhibitor, partial curve, poor fit]"
18,O=[N+]([O-])c1ccc(O)c(C=NNc2ccc(S(=O)(=O)O)cc2)c1,active: 21.2 µM
19,Cc1cc(C)cc(OCc2cc(=O)n3c(-c4ccccc4)csc3n2)c1,"inconclusive [inhibitor, partial curve]"
20,O=C(COC(=O)c1ccc(OC(F)(F)F)cc1)Nc1ncccn1,"inconclusive [inhibitor, full curve]"
